# Reference: paper PMC4336329 (PLoS ONE, 2015)
# About 2,200 (0.71%) of roughly 310,000 compounds showed an effect of 50% or more. The effect is printed as a negative number. Some of the results follow.
# Biological target: human ether-à-go-go-related gene (hERG) potassium channel (human, UniProt Q12809)
# Assay: primary screen, population patch clamp on CHO cells stably expressing hERG
# Chain of human ether-à-go-go-related gene (hERG) potassium channel (Q12809 whole entry, looked up): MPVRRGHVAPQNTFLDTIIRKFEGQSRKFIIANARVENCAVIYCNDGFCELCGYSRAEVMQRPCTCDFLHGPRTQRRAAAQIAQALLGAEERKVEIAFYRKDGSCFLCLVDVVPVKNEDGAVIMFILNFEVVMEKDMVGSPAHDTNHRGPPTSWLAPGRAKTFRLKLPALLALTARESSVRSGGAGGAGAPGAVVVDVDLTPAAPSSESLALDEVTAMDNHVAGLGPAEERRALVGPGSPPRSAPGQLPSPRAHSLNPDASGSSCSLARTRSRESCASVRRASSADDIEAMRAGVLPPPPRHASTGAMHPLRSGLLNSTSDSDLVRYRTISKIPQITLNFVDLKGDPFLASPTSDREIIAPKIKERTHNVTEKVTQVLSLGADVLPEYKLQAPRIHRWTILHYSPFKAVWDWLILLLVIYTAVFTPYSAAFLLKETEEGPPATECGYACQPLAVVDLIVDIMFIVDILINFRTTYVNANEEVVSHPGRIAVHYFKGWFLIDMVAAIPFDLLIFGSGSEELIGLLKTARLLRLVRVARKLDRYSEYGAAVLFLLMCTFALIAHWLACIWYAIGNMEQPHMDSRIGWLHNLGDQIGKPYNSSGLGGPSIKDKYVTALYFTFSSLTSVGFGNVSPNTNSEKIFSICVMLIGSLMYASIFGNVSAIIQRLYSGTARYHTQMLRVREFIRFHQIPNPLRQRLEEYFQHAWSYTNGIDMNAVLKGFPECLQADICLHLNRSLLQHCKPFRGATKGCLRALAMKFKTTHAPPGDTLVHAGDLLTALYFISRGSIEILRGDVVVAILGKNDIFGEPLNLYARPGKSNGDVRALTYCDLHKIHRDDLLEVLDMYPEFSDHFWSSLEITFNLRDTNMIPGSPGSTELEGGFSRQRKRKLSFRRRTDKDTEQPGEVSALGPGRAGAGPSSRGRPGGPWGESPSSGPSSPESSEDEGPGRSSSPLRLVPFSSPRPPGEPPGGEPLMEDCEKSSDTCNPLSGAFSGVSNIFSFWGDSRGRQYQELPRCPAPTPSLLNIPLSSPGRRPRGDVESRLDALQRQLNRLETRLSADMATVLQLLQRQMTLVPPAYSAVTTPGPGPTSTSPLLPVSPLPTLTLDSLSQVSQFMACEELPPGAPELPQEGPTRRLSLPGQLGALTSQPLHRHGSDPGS
row,SMILES,"hERG current change (%, negative = inhibition) at 1uM"
1,O=C(CCCn1c(=O)c2ccccc2n(Cc2cccc(F)c2)c1=O)NC1CCN(Cc2ccccc2)CC1,-21.6%
2,C/C(=N/NC(=O)Cc1cccs1)c1ccco1,6.93%
3,O=C(Nc1ccc(F)cc1)c1sc2cc(C(F)(F)F)cnc2c1-c1cccs1,7.93%
4,CC1(C)CC(=O)C(=Cc2cn(CCC#N)nc2-c2ccc(F)cc2)C(=O)C1,8.3%
5,CCOC(=O)C1CN(S(=O)(=O)c2ccccc2)C1,8.96%
6,O=C(NCc1cccs1)C1CC(O)CN1C(=O)Nc1ccccc1 (stereo not drawn),16.6%
7,CCOC(=O)N1CCC(N2C(=O)c3ccc(C(=O)O)cc3C2=O)CC1,5.66%
8,Nc1cc(N2CCNCC2)c([N+](=O)[O-])cc1Cl,12.7%
9,COc1ccc(N(CC(=O)Nc2cccc([N+](=O)[O-])c2C)S(C)(=O)=O)cc1OC,5.09%
10,CN(C(=O)c1cc2ccccc2oc1=O)C1(C)CCS(=O)(=O)C1 (stereo not drawn),9.53%
11,O=C(NNC(=O)c1ccccc1[N+](=O)[O-])Nc1ccc(Cl)cc1,16.3%
12,CC(C)Oc1ccc(C(=O)NC2CCSc3ccccc32)cc1 (stereo not drawn),17.8%
13,O=C(Cc1cccs1)Nc1nnc(SCc2ccc(Br)cc2)s1,5.02%
14,Cc1ccc(S(=O)(=O)N/N=C\c2cn(CC(N)=O)c3ccccc23)cc1C,16.6%
15,CSc1cccc(CN2CCCC(CNC(=O)c3ccco3)C2)c1 (stereo not drawn),-48.1%
16,O=C(COC(=O)/C=C/c1ccc(F)cc1)Nc1cc(C(F)(F)F)ccc1N1CCOCC1,-14.2%
17,COC(=O)c1c(C)[nH]c(C(=O)/C=C/c2ccc(C)cc2)c1C,7.83%
18,Cc1ccc2nc(N3CCN(C(=O)c4cccs4)CC3)c(C#N)cc2c1,-51.3%
19,CC(=O)Nc1ccc(N(C(=O)CNC(=O)c2ccco2)C(C(=O)NC2CCCC2)c2ccco2)cc1 (stereo not drawn),2.54%
20,O=C1CN(c2ccccc2)C(=S)N1C(=O)c1ccc(Br)cc1,10.7%
21,O=C(NCc1cc(C(F)(F)F)cc(C(F)(F)F)c1)C12CN(Cc3ccccc3)CC1C(c1cccc([N+](=O)[O-])c1)=NO2 (stereo not drawn),-0.505%

row,SMILES,"hERG current change (%, negative = inhibition) at 1uM"
1,CCOC(=O)N1CCN(S(=O)(=O)c2ccc(C)cc2)C1c1ccccc1 (stereo not drawn),1%
2,CC(C)c1ccc(NC(=O)CN2C(=O)c3ccccc3S2(=O)=O)cc1,8.27%
3,CCCOC(=O)c1c(N)n(Cc2cccs2)c2nc3ccccc3nc12,-8.02%
4,CC(=O)Oc1ccc(N(C(C)=O)S(=O)(=O)c2ccc(C)cc2C)c2ccccc12,16.6%
5,O=C(CNC(=O)c1ccco1)Nc1ccc(OC(F)F)cc1,12%
6,Cc1ccc2cc(S(=O)(=O)NCCC(=O)O)ccc2c1,3.4%
7,C/C=C\C(=O)Nc1cccc(C2=NOC3(C2)C[C@@H](C(N)=O)N(C(=O)C2(C)CC2)C3)c1 (stereo partly drawn),13.7%
8,COc1ccc2[nH]c(=O)c(CN(C(=O)c3ccco3)C(C)C)cc2c1,0.707%
9,COc1ccccc1Nc1cc(N2CCOCC2)c2nonc2c1[N+](=O)[O-],3.71%
10,O=C(NC1=NCCS1)c1ccc(Cl)cc1,18%
11,CN1c2ccc([N+](=O)[O-])cc2N(C)C1(C)c1ccccc1 (stereo not drawn),13.1%
12,Nc1nc2n(n1)C(=O)CC(c1ccccc1[N+](=O)[O-])N2 (stereo not drawn),18.6%
13,Cc1cc(NC(=O)CSc2ccccn2)no1,6.36%
14,CC(OC(=O)CCN=C1NS(=O)(=O)c2ccccc21)C(=O)Nc1ccc(N(C)C)cc1 (stereo not drawn),6.5%
15,O=Cc1c(NCc2ccccc2Cl)c2ccccc2[nH]c1=O,8.22%
16,Clc1ccc(-n2nnnc2-c2ccccc2)cc1Cl,8.95%
17,CC(C)CCN1C(=O)CC(NNC(=O)c2ccc(S(=O)(=O)N3CCCC3)cc2)C1=O (stereo not drawn),9.66%
18,CCN(CC)c1nc(N2CCN(C)CC2)nc2ccccc12.Cl,-0.0664%
19,O=C(Cc1coc(-c2ccc(F)cc2)n1)N1CCOCC1,6.42%
20,C#CCOCCOCCOCCNc1nc(N2CCN(C(=O)C(Cc3ccc(O)cc3)n3cc(C(N)CC(C)C)nn3)CC2)nc(N2CCN(C(=O)C(Cc3ccc(O)cc3)n3cc(C(N)C(C)CC)nn3)CC2)n1.Cl (stereo not drawn),10.2%
21,CCc1ccc2c(c1)[C@]1(C(=O)N2)[C@@H]2C(=O)N(Cc3ccccc3)C(=O)[C@@H]2[C@@H]2CCCN21,14.5%

row,SMILES,"hERG current change (%, negative = inhibition) at 1uM"
1,O=C1NC2(CCCCCC2)C(=O)N1Cc1ccc(Cl)cc1Cl,9.34%
2,CC(C(=O)NCc1ccco1)n1ccc2cc(S(=O)(=O)N3CCCCC3)ccc21 (stereo not drawn),12.2%
3,O=C(c1ccc(Cl)c(S(=O)(=O)N2CCOCC2)c1)N1CCCCC1,11.1%
4,CNC(=S)NC1CC2CCCC(C1)N2Cc1ccco1 (stereo not drawn),11.1%
5,Cc1nc2ncnn2c(C)c1CCC(=O)N1CCN(c2ccccn2)CC1,-9.92%
6,CCOc1cc(/C=C2/C(=N)N3OC(C)=CC3=NC2=O)ccc1OC,11.2%
7,COc1ccc(OC)c(C2NC(=S)NC(C)=C2C(=O)Nc2ccccn2)c1 (stereo not drawn),2.16%
8,O=c1cc(CN2CCN(C/C=C/c3ccccc3)CC2)c2cc(O)c(-c3ccccc3)cc2o1,12.8%
9,Cc1cc(C)nc(/N=C(/NC(=O)c2ccccc2)Nc2ccccc2)n1,5.9%
10,CCOC(=O)C1(CC2CC2)CCN(Cc2cc(Cl)c(O)c(OC)c2)CC1,-14.4%
11,Cc1cccc(NC(=O)C2C(c3ccccc3)C2(Cl)Cl)c1C (stereo not drawn),7.98%
12,C(C#CCCCCCCCCC[n+]1ccccc1)#CCCCCCCCCC[n+]1ccccc1.Cc1ccc(S(=O)(=O)O)cc1,9.06%
13,CCOc1ccc(CCNC(=O)C(C)N2C(=O)CC(C)(C)Sc3ccccc32)cc1 (stereo not drawn),14.3%
14,CCn1c(Cc2ccc(OC)cc2)nnc1SCC(=O)Nc1cccc(C(=O)OC)c1,-5.48%
15,Cc1cc(C(=O)N2CCCC(CO)(Cc3ccc(F)cc3)C2)c(C)o1 (stereo not drawn),7.5%
16,CC1CN(C(=O)C(C)Sc2nc3ccccc3s2)CC(C)O1 (stereo not drawn),11.3%
17,Cc1nn(C)c(C)c1S(=O)(=O)N(CC(=O)N1CCc2ccccc21)c1ccc(C(C)C)cc1,2.58%
18,COc1ccc(OC)c(Nc2ncnc3sc(-c4ccccc4)cc23)c1,11.3%
19,Cc1[nH]c2c(ccc3ccccc32)c1C1C(CCN)C1(C)C (stereo not drawn),4.8%
20,COc1ccc(N=C2SC(CC(=O)Nc3ccccc3)C(=O)N2CCc2ccccn2)cc1 (stereo not drawn),1.91%
21,CC(=O)N(C)c1ccc(NC(=O)/C=C/c2ccccc2Cl)cc1,0.296%

row,SMILES,"hERG current change (%, negative = inhibition) at 1uM"
1,Cn1ncc(Cl)c1C(=O)Nc1cccnc1,15.2%
2,O=C(O)C1CCCN1S(=O)(=O)c1cccc(S(=O)(=O)N2CCCC2C(=O)O)c1 (stereo not drawn),8.12%
3,CC(C)Cc1nc2oc3c(NCC4CCCO4)ncnc3c2c2c1CCC2 (stereo not drawn),-8.78%
4,FC(F)(F)c1cccc(-c2nc3nc(Cl)c(Cl)nc3[nH]2)c1,18.5%
5,COc1cc(NC(=O)c2cnc(N)s2)cc(C(=O)Nc2cccc(C(F)(F)F)c2)c1,-13.2%
6,COC(=O)CN(c1ccccc1OC)S(=O)(=O)c1ccccc1,-0.426%
7,N#Cc1cc([N+](=O)[O-])ccc1NC(=O)COC(=O)CC1CCCC1,4.27%
8,Cn1c(N2CCOCC2)nc(-c2ccccc2)c1-c1ccccc1,4.43%
9,CN(C)S(=O)(=O)N1CCCC(C(=O)c2ccc(-c3ccccc3)c(F)c2)C1 (stereo not drawn),9.5%
10,COc1cccc(-n2c(C)c3c(OC)cccc(=O)c3c2C)c1,5.6%
11,CC(O)c1c(OCc2ccccc2)ncnc1OCc1ccccc1 (stereo not drawn),-3.83%
12,Cc1ccc(C(=O)CSc2nnc(CNc3nc(-c4ccccc4)cs3)n2C)cc1,7.92%
13,Cc1ccc(NC(=O)C(c2ccccc2)N2CCN(C(=O)c3ccco3)CC2)cc1Cl (stereo not drawn),2.28%
14,N#C/C(=C\c1cccc(OC(=O)c2cccs2)c1)C(N)=O,14.4%
15,COc1ccccc1Nc1nc(NCc2ccco2)c2ccccc2n1.Cl,-1.94%
16,CC(Oc1cccc(Cl)c1)C(=O)Nc1ccc(S(=O)(=O)N(C)C2CCN(C)CC2)cc1 (stereo not drawn),3.5%
17,Cc1cc(OC(C)C)c2c(-c3ccccc3)cc(=O)oc2c1,6.97%
18,CCOc1ccc2[nH]c(=O)c(C(c3nnnn3C3CCCCC3)N3CCN(CC)CC3)cc2c1 (stereo not drawn),-10%
19,CC(NC(=O)CC(c1ccccc1)c1cc(Cl)ccc1O)c1ccccc1 (stereo not drawn),3.76%
20,NNC(=O)COc1ccc(C2SCCS2)cc1,1.08%
21,Cc1ccc(CSc2nnc(C)c(=O)[nH]2)cc1,17.3%
